Experimental data reported in the supplement of paper PMC12632987.
In all, about 4,500 sequences were measured (“median log2 fold change of GCK-ALFA target abundance (FLAG IP / Myc IP barcode read proportion)”: median about 0.078, lowest 2% from about -0.6 on). This is one part of the list.

B1: GBRAP_26_5451 (protein)
chain: MEELLERFRERLERAADELLDPETAALLKVAVDDIIALAELELEEANGDLEKELEIVEEMLEDLEEELEDLEVPEEVREKLLEIAREEAEEIKKALKEER
B2: GBRAP_160_4349 (protein)
chain: SERVEELIKRIREAAEEVIEALDEVSVEEAAVLAAGEFGAVAMEAAEDERMSDEMVDAIIDGRDRAVAAFRAGADASREELKRRLREITEETIEELKKIA
B3: GBRAP_195_5407 (protein)
chain: MKVESAVLRVTADDTPAQIQAKIDAIVARVAAETGADLVLVVARDPSVPESVVRAAVAAAEARYPGIKITVEIFDDISLPEETLQKFAEMERLNLEEEKE
B4: GBRAP_160_4764 (protein)
chain: KEELKKLKKEIEEIFEEHIELLKEVPKEEAVTIVRGAMGEVLMLVMSSEAASDELEEKIGEIADEAEEEAKKNKDAPVEVHIEILEKAKKEILELIEKEI
B5: GBRAP_128_3500 (protein)
chain: SREEAVARTRELMARIAEASPEETRALTRELVALMASVDRETAEAMADAALERLPELSAEALDVVADTLRELRPTVDPFIARLLADIQVEALNELEEKEE
B6: GBRAP_52_6145 (protein)
chain: MVEELVELFLKAVEAKKAGDEEEKKKYIEEAAKLMKEMTEEEIEEAAREAVARVPKEDLDVVMEVALELGDKMEELGVDERKVAAFLGAAAAAAYEKELA
B7: GBRAP_137_3646 (protein)
chain: PNVTITKETIDDLVEINIEFDDPEKAEEAAELIRDVAHEHGALAVSIEINEDGTLEATIWVPKDKAQALIDALVTRLRTELGANVTVIDKDTGETTVVKA
B8: GBRAP_160_4431 (protein)
chain: SEKVEKAKKEIDELFDEALEMMKGQSAEQRIVVIDVTEGEVKLMLEELGLLTDEIDKVIDDTFAAIKAYVAAHPDISQEELAALLDAAAAKIKEALEKAS
B9: GBRAP_39_5631 (protein)
chain: EEEEELELLESYAEAELAKRQVETGLAPDELYARLLAEARALAADDPELLAAINRLDALAAEHGPEAREKLAAALAALLAGLPKEDILRLLNALIEELEA
B10: GBRAP_52_6159 (protein)
chain: SEERARAMADEILAAVRAGDEERLEELLRRAARELSQEELVLMMEHIAEAVAGLSPEEAERVVEAAIRFEDLAVAAGHDEELLSYQLARVAAAAYKQIQA
B11: GBRAP_14_3834 (protein)
chain: MELVERVLREAAERIARELAELAGLDYEEVLRRMREVVEEALELYRKTGNLEEALRHFEERAVRTVRELLADKPPELQAQAEAIVRVEVGEARLELEEEE
B12: GBRAP_184_5120 (protein)
chain: EVVRRAVEGEKAEELIAKAEAVVAEAAAAGKRLFLAVFAENMSVEEIIEVIKHLGELKKAHPEVEIVLVVENELSDEEIDKVVEAADEAGVRVVVAIKEE
B13: GBRAP_52_6101 (protein)
chain: AAAEAEALVERLLALVRAGREAEARAEAAALAAEMDEARLRVLTEALAARARAAAPEDLDAVWRLAELLADELEAAGWPDVLVDDLLAATAAALYERELA
B14: GBRAP_78_6656 (protein)
chain: ELEKLLDEADEKARELRKLAKKVDPELANLAAETDVLVGEAIYLYEIEKASPEEIKEELEEAKKAAEELLKLAEKKDKEVAKLAKELIKLLEKAIKELKK
B15: GBRAP_139_3751 (protein)
chain: SALEERIARARALAEQIPEDPEGSIAALADLMNSVNEEDAERIARAAAEVLRGLPFDEFEAYFDALIDTLRTKHNNEDLADIAEAEMNRALAQIAVEEEA
B16: GBRAP_11_2837 (protein)
chain: KKEKLKEIAEKAREVAKELDALIASGAPTKEELEELLKKVEELLKLAEELGDESLVKLAKIALEEVKEAIADPATQLQHLKNALAAVRVLEGQALLEYDE
B17: GBRAP_125_3042 (protein)
chain: AEEEAIEALAALAKIFGLSEEEVEELKRLAREYGVKGALIALLLAEGLEELAELAARLSEEAVREVLAEFLAWLKAHPDITREEAVEELERLLREALERE
B18: GBRAP_11_2657 (protein)
chain: KKEVYEEAAELARRAAEALERLIATGVDDEELIAEARELIERLRELAEKHLDEATRSEVEVVVELWEEFLADPANAEQLAKELLAGVRVLEGNLLLEADE
B19: GBRAP_52_6326 (protein)
chain: MEEEIKKLAEELVAAIKAGDEEEAKKLAEEAVEKLSSEGILKLAKLVAEAVAKEDYETQVRATEVFDYLAELVIEKRGDERTAAEILGIAATTFYAAEQA
B20: GBRAP_14_3852 (protein)
chain: IEELIKAVEETAKETKEMAKEVLPEHAEEVNKKIEELAKKIIKKIKEENLNKEEVAELMDEFAEELAKFIKEKGFANETEIAAIRATILNEAALKLDEIE
B21: GBRAP_52_6211 (protein)
chain: MEERLEELARAILEAVRAGDEERARRLLREVAETLDDEELERFAEVLVKLAEEARPEEFDAVFRLAELAEEVLLEEGRDEVLADDLLNRVAAALYKRELE
B22: GBRAP_43_5736 (protein)
chain: DEEVLEAAAETARLALESEELSDETKIRILKDFFEVAADNSKKNKELYKEAAEALEKSDKAEAVEKAAKLAKELAEKEPKYKETLELAAKFLEEKLKKLK
B23: GBRAP_160_4759 (protein)
chain: KEELKKLKEEIKEIFEEHKELLKEVPAAEAPTVVRDAMGEVLMEVFSSEAASEELEEKIGEIADEAEARAAANADAPVEFHIAVLEEAEKKVLELIEKEI
B24: GBRAP_128_3477 (protein)
chain: SAEELLKEAEELAEKIVEAKVEEVPALVKEFAKLLEKADPETQEKIAEILKAKIPKLSEEKLEALYDTLREQAKKANPETQAVLNEIAVEAGQQILELEE
B25: GBRAP_160_4187 (protein)
chain: SESIEELIKEIREIAEEAIKLIEGETHEERIVIVAGAFGQIILLLSENEEISDETVDEVAEIADELIEYLKANPDLTEEEIKELIREATEKIIEIIKENH
B26: GBRAP_78_6741 (protein)
chain: EVEEELDKAIEHLSKAYQLTKEFPQEDRDELTDLLVEAESYLLLAEENGYDLEELEKALEYLEKAIKLVKELNLPEAKPLLEELEKAKEYVEKAIELVKK
B27: GBRAP_11_2769 (protein)
chain: KKEKLKELAKLAEKAAEAVEKLLEEGVDNEELLKKIEELLKKIEKLTKEYGNKDMKKLVEIAKELLEKIKEDPENAEKYAEELRATLRVLSGQALLEAEE
B28: GBRAP_14_3791 (protein)
chain: MEEIRKVLEEAIEEIMALIADLPADVRAALRAALTAIAEETLARIKETGDVDEAMDEGIERAAAAAAEILAPLDPETRANAVAIVRTEWSNAAEEIDELV
B29: GBRAP_184_5038 (protein)
chain: AIKEVTIEAKDLEELKAKLAELEEEMKNFKGDLIVHVKSPKFTKEMVEELMSTLKNMLDKGYISSATVGLDGEMTEEVVDLAVKLADEAGIKVVLALDEE

Biological target: GABARAP, O95166
Sequence (O95166 whole entry, the tested form may be a part): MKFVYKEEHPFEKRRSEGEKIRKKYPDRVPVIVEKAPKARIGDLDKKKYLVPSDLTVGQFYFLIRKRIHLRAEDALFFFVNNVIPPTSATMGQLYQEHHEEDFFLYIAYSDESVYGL
Test: median log2 fold change of GCK-ALFA target abundance (FLAG IP / Myc IP barcode read proportion) (log2 ratio); each designed protein is fused to an ALFA-tag nanobody in HEK293 cells to bring the named protein to FLAG-tagged glucokinase (GCK); Myc marks an untargeted standard; higher = target protein stabilised (more abundant)
Settings: target protein: 3xFLAG-MCP-GCK-ALFA reporter; HEK293 landing pad (RPLP)
Method in brief: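 Binders fused to an ALFA nanobody were recombined as a library into HEK293 landing-pad cells, which were induced with 2 μg mL^−1 doxycycline and then transfected to express a FLAG-tagged target and a Myc-tagged standard. After 48 h, circular RNA barcodes recovered by anti-FLAG and anti-Myc immunoprecipitation of lysates were reverse transcribed, amplified and sequenced. Each binder's target abundance is the median log2 ratio of FLAG to Myc barcode read proportions, from barcodes present at ≥10^−7 in both replicates, binders carrying ≥3 barcodes per replicate, a 10^−6 pseudocount and pooled replicates.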

Binder | median log2 fold change
B1 | -1.2
B2 | 0.153
B3 | 0.297
B4 | 0.164
B5 | 0.333
B6 | 0.183
B7 | -0.0128
B8 | 0.227
B9 | 0.3
B10 | 0.0877
B11 | 0.174
B12 | 0.158
B13 | -0.279
B14 | -0.0422
B15 | 0.212
B16 | 0.179
B17 | -0.178
B18 | 0.177
B19 | 0.231
B20 | 0.15
B21 | 0.114
B22 | 0.366
B23 | -0.0325
B24 | 0.312
B25 | -0.0811
B26 | 0.243
B27 | 0.21
B28 | 0.213
B29 | 0.0979
